Results: US20100204131A1, “USE OF A PEPTIDE AS A THERAPEUTIC AGENT” (priority 2007, published 2010)

Test system: RAW 264.7 (Mouse leukaemic monocyte macrophage cell line) cells
Assay: Phagocytosis assay
Conditions: 10 micrograms per ml, Fluorescein-labeled Escherichia coli, flow cytometry

Substance | effect on the phagocytic activity of murine macrophages (increase)
Ala-Ser-Gln-Phe-Glu-Thr-Ser-OH (ASQFETS-OH) [peptide 2] | 31.4%
Ser-Tyr-Ser-Met-Glu-His-Phe-Arg-Trp-Gly-Lys-Pro-Val-Gly-Lys-Lys-Arg-Arg-Pro-Val-Lys-Val-Tyr-Pro-OH [peptide 1] | no inhibitory or activating effects

No end group written: not given here.
